Patent US11939397B2, “ENTPD2 antibodies, combination therapies, and methods of using the antibodies and combination therapies” (Novartis AG, priority 2018, dated 2024)

T1: mouse ENTPD2 (Mus musculus, UniProt O55026)
T1 construct: residues 29-462 of mouse or rat ENTPD2 (the extracellular domain); mouse IgK signal peptide (N); made in house; host or cells: FreeStyle 293-F cells, transient
T1 sequence (O55026 29-462): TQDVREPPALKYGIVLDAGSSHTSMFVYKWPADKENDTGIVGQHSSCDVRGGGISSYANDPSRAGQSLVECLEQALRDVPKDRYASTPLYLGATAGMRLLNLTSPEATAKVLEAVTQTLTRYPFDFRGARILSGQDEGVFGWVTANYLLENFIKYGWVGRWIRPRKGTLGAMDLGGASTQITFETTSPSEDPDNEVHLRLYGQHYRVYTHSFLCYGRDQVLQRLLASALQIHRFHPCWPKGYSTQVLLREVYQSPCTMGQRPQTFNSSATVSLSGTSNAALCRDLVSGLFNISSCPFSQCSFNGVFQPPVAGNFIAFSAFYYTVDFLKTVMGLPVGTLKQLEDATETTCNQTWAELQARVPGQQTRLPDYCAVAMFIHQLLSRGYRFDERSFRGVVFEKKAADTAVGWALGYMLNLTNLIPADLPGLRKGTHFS

T2: human ENTPD2 (Homo sapiens, UniProt Q9Y5L3)
T2 construct: residues 29-462 of human or cyno ENTPD2 were cloned into expression vector; GP67 signal peptide (N); made in house; host or cells: High Five (Trichoplusia ni) insect cells, baculovirus
T2 sequence (Q9Y5L3 29-462): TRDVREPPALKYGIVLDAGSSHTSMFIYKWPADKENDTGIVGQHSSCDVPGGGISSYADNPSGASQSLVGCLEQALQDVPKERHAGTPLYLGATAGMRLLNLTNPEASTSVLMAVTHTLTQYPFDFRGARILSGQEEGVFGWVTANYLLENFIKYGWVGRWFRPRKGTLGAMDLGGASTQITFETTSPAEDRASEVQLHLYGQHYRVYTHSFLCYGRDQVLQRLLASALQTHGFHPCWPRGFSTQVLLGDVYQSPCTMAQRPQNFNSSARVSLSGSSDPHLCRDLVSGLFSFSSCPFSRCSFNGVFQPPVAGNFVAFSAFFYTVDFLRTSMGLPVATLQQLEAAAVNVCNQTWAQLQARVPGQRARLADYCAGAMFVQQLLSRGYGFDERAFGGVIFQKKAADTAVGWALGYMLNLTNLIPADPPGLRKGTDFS


Experiments:
mouse ENTPD2 = biological target: T1, mouse ENTPD2; experiment: Antibody specificity: binding to mouse ENTPD2; details: for Mouse ENTPD2 BIACore KD: SPR
Method: FACS screening: Specific binding of candidate antibodies to endogenously expressed ENTPD2 was assessed by flow cytometry. Cells were rinsed thoroughly with 1×PBS and treated with Accutase (Millipore #SCR005) to lift from growth plates and resuspended at approximately 1×10^5 cells/90 μL in 1×FACS buffer (2% FBS+0.1% NaN3 in PBS). In a 96-well U-bottom plate, 10 μL of 10× antibody solution in FACS buffer was pre-seeded and 90 μL of cell suspension was added. Cell were incubated for 30 minutes at 4° C., washed 1× with cold PBS and resuspended in 100 μL of 1:500 secondary antibody 1×FACS buffer (Allophycocyanin conjugated F(ab′)2 goat anti-human IgG, Fcγ specific; Jackson Immunoresearch, Cat #109-136-098). After additional incubation for 15 min at 4° C., cells were washed twice with PBS and resuspended in 100 μL of 1×FACS buffer with 4 μg/mL propidium iodide (Life Technologies, Cat #P3566). Geometric mean fluorescence intensity was calculated on live single cells using FlowJo software.
ELISA screening on directly coated antigen: Maxisorp™ 384-well plates (Thermo Nunc) were coated with 2 μg/ml of recombinant ENTPD2 diluted in PBS. After blocking with 2% BSA (bovine serum albumin) in PBS for 1 hr at room temperature, washing plates 3× with TBST (0.05% Tween 20 in TBS, Sigma Cat #T9039), primary antibodies in TBST and 2% BSA were added in a serial dilution and incubated for 1 hr at room temperature. Plates were washed again and bound antibodies were detected by incubation with anti-hFc gamma conjugated to horseradish peroxidase (HRP; Jackson ImmunoResearch, Cat #115-035-098, diluted 1:5000 in 1×TBST+2% BSA) for 1 hr at room temperature followed by washing with TBST and afterwards addition of SureBlue Peroxidase substrate (KPL, #52-00-03) substrate. After 15 min, absorbance at 650 nm was recorded and analyzed in GraphPad Prism6.
(§1) Biacore™ Screening: Affinity was measured by determining the kinetic rate constants using surface plasmon resonance (SPR) on a Biacore™ T200 or T100 with the T200 sensitivity upgrade instrument (Biacore™, GE Healthcare). Antibodies were captured on CM5 sensor chips (Biacore™, GE Healthcare) prepared with a mouse anti-human IgG Fc antibody (ThermoFisher catalogue #05-4200) amine coupled to the surface. […] ENTPD2 analytes were allowed to associate for 180 s and dissociate for up to 1800 s depending on the off-rate of the antibody at a flow rate of 30 μL/min. The running buffer was PBS pH 7.2 (prepared from a Corning 10× stock, cat #46-013-CM)+0.05% Tween 20. Regeneration was accomplished with 30 s injections of 3 or 4 M MgCl2 to remove all the captured antibody and remaining complex from the surface, after which fresh antibody was captured. The raw data were analyzed using Biacore™ T200 Evaluation Software version 1.0 and fit to a 1:1 binding model, with all parameters set to fit globally except for RI, which was set to fit locally.
Antibody specificity for mAb1-mAb10 was confirmed. […] Antibodies mAb8, mAb9, and mAb10 show weak affinity to mouse ENTPD2. None of the selected antibodies bind to rat ENTPD2.

[1] = tested on: cynomologus (cyno) ENTPD2; experiment: Biacore SPR affinity to cyno ENTPD2 ECD; assay type: binding, cynomolgus monkey; details: 25° C.
Method: as §1

human ENTPD2 = biological target: T2, human ENTPD2; experiment: Biacore SPR affinity to human ENTPD2 ECD; assay type: binding; details: 25° C.
Method: as §1

| Molecule | affinity / cross-reactivity to mouse ENTPD2 (mouse ENTPD2) | Mouse ENTPD2 BIACore KD (mouse ENTPD2) | Cyno ENTPD2 ka [1] [M⁻¹ s⁻¹] | Cyno ENTPD2 kd [1] [s⁻¹] | Human ENTPD2 ka (human ENTPD2) [M⁻¹ s⁻¹] | Human ENTPD2 kd (human ENTPD2) [s⁻¹] |
| --- | --- | --- | --- | --- | --- | --- |
| mAb8: anti-human ENTPD2 antibody of Table 1; weak affinity to mouse ENTPD2 (antibody) heavy: QVQLQQSGPGLVKPSQTLSLTCAISGDSVSSSSAAWNWIRQSPSRGLEWLGRIYYRSKWYNDYAVSVKSRITINPDTSKNQFSLQLNSVTPEDTAVYYCARGSYVTSSYEGFDYWGQGTLVTVSSASTKGPSVFPLAPSSKSTSGGTAALGCLVKDYFPEPVTVSWNSGALTSGVHTFPAVLQSSGLYSLSSVVTVPSSSLGTQTYICNVNHKPSNTKVDKRV[human IgG1 Fc skipped] light: SYELTQPLSVSVALGQTARITCSGDNLPEKYAYWYQQKPGQAPVLVIYDDNKRPSGIPERFSGSNSGNTATLTISRAQAGDEADYYCQSYGKWGWTWVFGGGTKLTVLGQPKAAPSVTLFPPSSEELQANKATLVCLISDFYPGAVTVAWKADSSPVKAGVETTTPSKQSNNKYAASSYLSLTPEQWKSHRSYSCQVTHEGSTVEKTVAPTECS | weak affinity | Weak | 300000 | 0.024 | 290000 | 0.00094 |
| mAb9: anti-human ENTPD2 antibody of Table 1; weak affinity to mouse ENTPD2 (antibody) heavy: QVQLVQSGAEVKKPGSSVKVSCKASGGTFDSYAVSWVRQAPGQGLEWMGRIVPWLGHTQYAQKFQGRVTITADESTSTAYMELSSLRSEDTAVYYCARESPGYRYSFDVWDQGTLVTVSSASTKGPSVFPLAPSSKSTSGGTAALGCLVKDYFPEPVTVSWNSGALTSGVHTFPAVLQSSGLYSLSSVVTVPSSSLGTQTYICNVNHKPSNTKVDKRV[human IgG1 Fc skipped] light: SYELTQPLSVSVALGQTARITCSGDAIGEKYVYWYQQKPGQAPVLVIYDDNNRPSGIPERFSGSNSGNTATLTISRAQAGDEADYYCASYDLQQARWVFGGGTKLTVLGQPKAAPSVTLFPPSSEELQANKATLVCLISDFYPGAVTVAWKADSSPVKAGVETTTPSKQSNNKYAASSYLSLTPEQWKSHRSYSCQVTHEGSTVEKTVAPTECS | weak affinity | – | 990000 | 0.021 | 380000 | 0.0003 |
| mAb10: anti-human ENTPD2 antibody of Table 1; weak affinity to mouse ENTPD2 (antibody) heavy: QVQLVQSGAEVKKPGSSVKVSCKASGGTFDSYAVSWVRQAPGQGLEWMGRIVPWLGFTRYAQKFQGRVTITADESTSTAYMELSSLRSEDTAVYYCARESPGYRYSFDVWDQGTLVTVSSASTKGPSVFPLAPSSKSTSGGTAALGCLVKDYFPEPVTVSWNSGALTSGVHTFPAVLQSSGLYSLSSVVTVPSSSLGTQTYICNVNHKPSNTKVDKRV[human IgG1 Fc skipped] light: SYELTQPLSVSVALGQTARITCSGDAIGEKYVYWYQQKPGQAPVLVIYDDNNRPSGIPERFSGSNSGNTATLTISRAQAGDEADYYCASYDLQQARWVFGGGTKLTVLGQPKAAPSVTLFPPSSEELQANKATLVCLISDFYPGAVTVAWKADSSPVKAGVETTTPSKQSNNKYAASSYLSLTPEQWKSHRSYSCQVTHEGSTVEKTVAPTECS | weak affinity | Weak | 1.2e+06 | 0.018 | 340000 | 0.00024 |
| mAb7: anti-human ENTPD2 antibody generated by humanization of mAb17 (antibody) heavy: QVQLVQSGAEVVKPGASVKISCKASGYTFTDYNMDWVKQAPGQRLEWIGDINPKYDISTYNQQFKGKATITVDKSASTAYMELSSLRSEDTAVYYCARRGFFLYYGINYYYFDVWGQGTLVTVSSASTKGPSVFPLAPSSKSTSGGTAALGCLVKDYFPEPVTVSWNSGALTSGVHTFPAVLQSSGLYSLSSVVTVPSSSLGTQTYICNVNHKPSNTKVDKRV[human IgG1 Fc skipped] light: EIVLTQSPATLSASPGEEITLSCSASSSVSYIHWYQQKPGQAPRLLIYSTSNLASGIPARFSGSGSGTFYTLTISSVEPEDAAVYYCHQWSSYPWTFGGGTKLEIKRTVAAPSVFIFPPSDEQLKSGTASVVCLLNNFYPREAKVQWKVDNALQSGNSQESVTEQDSKDSTYSLSSTLTLSKADYEKHKVYACEVTHQGLSSPVTKSFNRGEC | – | No binding | 1.2e+06 | 0.0012 | 210000 | 0.00019 |
| mAb2: anti-human ENTPD2 antibody generated by humanization of mAb17 (antibody) heavy: QVQLVQSGAEVVKPGASVKISCKASGYTFTDYNMDWVKQAPGQRLEWIGDINPKYDISTYNQQFKGKATITVDKSASTAYMELSSLRSEDTAVYYCARRGFFLYYGINYYYFDVWGQGTLVTVSSASTKGPSVFPLAPSSKSTSGGTAALGCLVKDYFPEPVTVSWNSGALTSGVHTFPAVLQSSGLYSLSSVVTVPSSSLGTQTYICNVNHKPSNTKVDKRV[human IgG1 Fc skipped] light: EIVLTQSPATLSASPGERITLSCSASSSVSYIHWYQQKPGQAPRLLIYSTSNLASGIPARFSGSGSGTFYTLTISSVEPEDAAVYYCHQWSSYPWTFGGGTKLEIKRTVAAPSVFIFPPSDEQLKSGTASVVCLLNNFYPREAKVQWKVDNALQSGNSQESVTEQDSKDSTYSLSSTLTLSKADYEKHKVYACEVTHQGLSSPVTKSFNRGEC | – | No binding | 430000 | 0.0012 | 110000 | 0.00018 |
